Hit rate of the full screen: of about 48,000 compounds, about 550 (1.1%) were called active. Inconclusive results (about 4%) are left out. Cut-off read from the data, not from the text of the source: active = potency below about 15 µM; inconclusive = mostly about 16 µM to 33 µM; inactive = weaker than that. The list shows a part of the results.
Target: Lysosomal acid glucosylceramidase (Homo sapiens) (UniProt P04062)
Assay: Glucocerebrosidase;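 note: the screen sought inhibitors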
Settings: purified enzyme, resorufin glucoside fluorescence (screen aimed at inhibitors), 20 min; series mostly up to 77 µM
Summary of the method: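 Compounds titrated against 0.2 nM normal enzyme, 30 uM resorufin beta-D-glucopyranoside substrate, citrate/phosphate buffer with taurocholate and tween-20, pH 5.9. Reaction ran 20 min at room temperature; fluorescence (Ex 548/Em 600) gave AC50.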
Potency is the fitted concentration of half-maximal effect.

Chain of UniProt P04062 (P04062 whole entry, looked up): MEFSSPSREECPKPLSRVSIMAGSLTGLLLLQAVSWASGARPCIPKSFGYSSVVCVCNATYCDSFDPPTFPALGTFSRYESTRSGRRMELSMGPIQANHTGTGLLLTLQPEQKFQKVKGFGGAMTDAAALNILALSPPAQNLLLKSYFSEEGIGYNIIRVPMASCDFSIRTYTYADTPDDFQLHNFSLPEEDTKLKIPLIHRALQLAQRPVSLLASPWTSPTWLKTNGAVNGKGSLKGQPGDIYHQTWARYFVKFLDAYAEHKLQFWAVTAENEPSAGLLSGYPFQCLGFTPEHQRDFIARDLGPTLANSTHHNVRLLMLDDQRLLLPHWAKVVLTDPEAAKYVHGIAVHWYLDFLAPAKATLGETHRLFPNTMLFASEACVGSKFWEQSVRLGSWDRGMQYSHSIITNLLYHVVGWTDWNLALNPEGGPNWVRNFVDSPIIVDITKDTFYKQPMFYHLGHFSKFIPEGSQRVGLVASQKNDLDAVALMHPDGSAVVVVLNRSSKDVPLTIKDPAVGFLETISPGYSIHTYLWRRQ

Potency, inactive:
CCn1c(COc2cccc(OC)c2)nnc1SCC(=O)Nc1cccc(OC)c1 > 76.9 µM
COc1ccccc1-c1noc(CCC(=O)Nc2cccc(C)c2)n1 > 76.9 µM
CC1(C)Cc2noc(N)c2C(C)(C)N1OC(=O)c1ccccc1 > 76.9 µM
CC(=O)Nc1ccc(C2NC(=O)c3ccccc3O2)cc1 (stereo unspecified) > 76.9 µM
O=C(Nc1ccccc1C(F)(F)F)c1cc(S(=O)(=O)N2CCOCC2)ccc1F > 76.9 µM
CN1/C(=C\C(=O)COc2ccc3c(c2)OCO3)C(C)(C)c2ccccc21 > 76.9 µM
O=C(COC(=O)c1ccc2c(c1)OCCO2)NCCC1=CCCCC1 > 76.9 µM
COc1ccccc1N1C(=O)c2ccccc2NC1c1ccncc1 (stereo unspecified) > 76.9 µM
CC(NC(=O)CCNS(=O)(=O)c1ccc2c(c1)c(=O)n(C)c(=O)n2C)c1ccccc1 (stereo unspecified) > 76.9 µM
Cc1cccc(N2C(=O)C3C4C=CC(C4)C3C2=O)c1 (stereo unspecified) > 76.9 µM
CCCn1c(=O)n(C)c(=O)c2c(SCc3cc(C(C)=O)ccc3OCC)nc(C3CC3)nc21 > 76.9 µM
CCn1cc(C(=O)N(CCCN2CCOCC2)Cc2ccco2)c(=O)c2ccc(C)nc21
CCC1(c2ccccc2)NC(=O)N(CC(=O)Nc2cccc(C#N)c2)C1=O (stereo unspecified) > 76.9 µM
O=c1cc(N2CCC(Cc3ccccc3)CC2)[nH]c(=O)n1C1CCCCC1 > 76.9 µM
COC(=O)C(C(=O)NCC1CCCO1)C1CCCCCC1 (stereo unspecified) > 76.9 µM
CCOC(=O)N1CCN(C(=O)c2ccc(S(=O)(=O)c3ccc(C)cc3)c(NC(C)=O)c2)CC1 > 76.9 µM
CC(=O)c1nnn(-c2nc(N)nc(N(c3ccccc3)c3ccccc3)n2)c1C > 76.9 µM
Cc1nc2c(F)c(F)c(C(F)(F)F)c(F)c2[nH]1 > 76.9 µM
O=C(NC1CCCCC1)C1CCN(c2nnnn2-c2ccccc2)CC1 > 76.9 µM
CC1CCCCN1C(=O)Cn1c(=O)n(C2CCCCC2)c(=O)c2ccccc21 (stereo unspecified) > 76.9 µM
Cc1nnc(C)n1/N=C/c1ccc2c(c1)OCCO2 > 76.9 µM
O=C(CCC(=O)N1CCc2ccccc21)N1CCc2ccccc21 > 76.9 µM
CCOCCCNC(=O)C(NC(=O)CNC(C)=O)c1ccc(Cl)cc1 (stereo unspecified) > 76.9 µM
CCc1ccccc1N(CC(=O)N1CCN(c2ccccc2F)CC1)S(C)(=O)=O > 76.9 µM
CC1(C)CC(=O)c2c(-c3cccs3)n[nH]c2C1 > 76.9 µM
Cc1ccc(S(=O)(=O)Cn2nnnc2C(c2ccc(F)cc2)N2CCCCC2)cc1 (stereo unspecified) > 76.9 µM
Cc1ccc(Cn2ncc3c(N4CCCC4)ncnc32)cc1 > 76.9 µM
CCCN(CCC)C1CC(=O)N(Cc2ccccc2)C1=O (stereo unspecified) > 76.9 µM
O=C(O)c1ccccc1NC(=O)C1CCCO1 (stereo unspecified) > 76.9 µM
COc1cc(C(=O)Nc2nccs2)c(Br)c(OC)c1OC > 76.9 µM
COc1ccccc1Nc1nnc(SCC(=O)N2CCCC2)s1 > 76.9 µM
COc1ccccc1C(=O)NCCCn1cc(Br)c(C)n1 > 76.9 µM
Fc1cccc(Cl)c1Cn1nnc(-c2ccc3c(c2)OCO3)n1 > 76.9 µM
O=C(NCc1cn2ccsc2n1)c1cccc(C(F)(F)F)c1 > 76.9 µM
Cc1cc(NS(=O)(=O)c2ccc(Br)s2)no1 > 76.9 µM
N#Cc1c(NC(=O)CSCC(=O)O)sc2c1CCCC2 > 76.9 µM
O=C(Cc1ccc(-n2c(=O)[nH]c3ccccc3c2=O)cc1)N1CCN(c2ccccc2)CC1 > 76.9 µM
O=C(O)c1cccc(S(=O)(=O)Nc2ccc3c(c2)OCO3)c1 > 76.9 µM
O=C(Nc1nc(-c2ccc(Cl)s2)cs1)c1cccs1
COc1ccc(OC)c(-c2cc(C(=O)Nc3c(C)nn(Cc4ccc(Cl)cc4)c3C)no2)c1 > 76.9 µM
O=C(Nc1ccc(F)cc1F)c1noc2c1CCC2 > 76.9 µM
O=C(NC(C(=O)c1ccccc1)n1ccc(=O)[nH]c1=O)c1ccccc1 (stereo unspecified) > 76.9 µM
CCOC(=O)N1CCN(S(=O)(=O)c2ccc(C(=O)Nc3nc4ccccc4s3)cc2)CC1 > 76.9 µM
Cc1cc(C)c2nc(N3CCCC(C(=O)N4CCC(C(N)=O)CC4)C3)sc2c1 (stereo unspecified) > 76.9 µM
CC1CC(C)CN(c2ncc3c(n2)CC(c2ccc(Cl)cc2)CC3=O)C1 (stereo unspecified) > 76.9 µM
CCN=C1SCC(=O)N1c1ccc(OC)cc1 > 76.9 µM
COC(=O)c1ccc2c(=O)sc(N3CCC(C(N)=O)CC3)nc2c1 > 76.9 µM
CCC(=O)Nc1cccc(NC(=O)c2cccnc2)c1 > 76.9 µM
O=C1C2C3C=CC(C3=C3CCCCC3)C2C(=O)N1c1ccccc1 (stereo unspecified) > 76.9 µM
C=CCn1cc(C(=O)NCCCOCC)c(=O)c2cc(S(=O)(=O)N(CC)CC)ccc21 > 76.9 µM
O=C(CCn1c(=S)oc2ccccc21)Nc1ccc2c(c1)OCCO2 > 76.9 µM
CCOc1ccc(-c2cc3nc(C4CCN(C(=O)OC(C)(C)C)CC4)c(C(=O)O)cn3n2)cc1 > 76.9 µM
CCOC(=O)C1CCN(C(=O)N2CCOCC2)CC1 > 76.9 µM
COc1ccc(-c2nc(C#N)c(NCc3ccc(F)cc3)o2)cc1OC > 76.9 µM
Cc1noc(C)c1COC(=O)c1cc(=O)[nH]c2ccccc12 > 76.9 µM
COc1ccc(N(CC(=O)NCc2ccccc2)S(=O)(=O)c2c(C)noc2C)cc1 > 76.9 µM
CC1CCCCN1C(=O)CSc1nc(-c2ccccc2)cc(=O)[nH]1 (stereo unspecified) > 76.9 µM
O=C(NCc1ccccc1)C(c1cccnc1)N(Cc1ccco1)C(=O)c1ccccn1 (stereo unspecified) > 76.9 µM
Cc1nnc(SCc2ccccc2C#N)n1-c1ccccc1
N#CC1=C2SCC(O)(c3ccccc3)N2C(=O)CC1c1cccs1 (stereo unspecified) > 76.9 µM
O=c1ccccn1Cc1ccccc1F > 76.9 µM
CN(C)S(=O)(=O)c1cccc(-c2cn3ccccc3n2)c1 > 76.9 µM
O=c1c2cnn(-c3ccccc3)c2nnn1Cc1ccccn1 > 76.9 µM
Cc1ccc(S(=O)(=O)N2CCN(C(=O)CSc3nc4ccccc4c(=O)[nH]3)CC2)c(C)c1 > 76.9 µM
O=C(NCCN1CCOCC1)c1ccc(CS(=O)(=O)Cc2ccccc2F)o1 > 76.9 µM
O=C(COC(=O)c1ccccn1)Nc1cccc(Cl)c1Cl > 76.9 µM
O=C(NCCC1=CCCCC1)C1CCN(S(=O)(=O)N2CCOCC2)CC1 > 76.9 µM
O=C(O)CCC(=O)N(Cc1cccnc1)Cc1cccc(F)c1 > 76.9 µM
Cc1cc(C)c2c(-n3cccc3)c(C(=O)O)sc2n1 > 76.9 µM
O=C(Oc1ccccc1)c1ccc(-n2cnnn2)cc1 > 76.9 µM
O=C(CN(Cc1ccco1)C(=O)CNS(=O)(=O)c1ccc(F)cc1)NCc1ccc(F)cc1 > 76.9 µM
C/C(=C(\C#N)C(=O)NCCN1CCOCC1)N(C)C > 76.9 µM
CCOC(=O)c1cc(C)n(CCc2ccccc2)c1C > 76.9 µM
C=CCSc1ncccc1C(=O)O > 76.9 µM
CC(=O)C1=C(C)Nc2ncnn2C1c1ccc(Cl)cc1Cl (stereo unspecified) > 76.9 µM
Cc1c(OCC(=O)OC(C)(C)C)ccc2c3c(c(=O)oc12)CCC3 > 76.9 µM
O=C(COC(=O)C1c2ccccc2Oc2ccccc21)NC1CCS(=O)(=O)C1 (stereo unspecified) > 76.9 µM
Cc1ccc(OCc2nc(C#N)c(N3CCCC3)o2)cc1 > 76.9 µM
CC(=O)Nc1ccc(S(=O)(=O)N2CCN(CC(=O)NC3CCCC3)CC2)cc1 > 76.9 µM
C=CCNc1nc2c(c(=O)[nH]c(=O)n2C)n1CCCCC > 76.9 µM
CCc1cccc(C)c1NC(=O)C1C2CCC(O2)C1C(=O)O (stereo unspecified) > 76.9 µM
COC(=O)c1ccc(NC(=O)c2ccccc2N(C)S(C)(=O)=O)cc1 > 76.9 µM
O=C1NC2(CCCC2)N=C1c1ccc(Cl)cc1 > 76.9 µM
O=C(CC(C(=O)O)C1CCCO1)NCCc1ccc2c(c1)OCO2 (stereo unspecified) > 76.9 µM
COC(=O)CNC(=O)c1c(-c2ccccc2Cl)noc1C > 76.9 µM
COC(=O)c1ccc(-c2nc3ccc(C)cc3o2)cc1 > 76.9 µM
CCN(CC(=O)NC1CCS(=O)(=O)C1)C(=O)C(c1ccccc1)c1ccccc1 (stereo unspecified) > 76.9 µM
CCOC(=O)C1C2C=CC3(CN(C4CCCC4)C(=O)C13)O2 (stereo unspecified) > 76.9 µM
COc1ccc(NC(=O)C2CCN(C(=O)NC3CCCCC3)CC2)c(OC)c1 > 76.9 µM
COc1ccc(C)cc1-n1nnnc1SCC(=O)c1ccc2c(c1)OCCO2 > 76.9 µM
COc1cc(CN2CCC(C(=O)N3CCCC(C)C3)CC2)cc(Br)c1O (stereo unspecified) > 76.9 µM

— PubChem BioAssay AID360 (National Center for Advancing Translational Sciences (NCATS), 2006)
